Experiments:
[1] = biological target: T1, human CEACAM5 on MKN-45 cells (human, UniProt P06731 35-685); assay: flow cytometry on MKN45 CEA+ cancer cells (also carry CD47)
T1 construct: endogenous CEA of MKN-45 gastric adenocarcinoma cells, which also carry CD47 and CEACAM6; UniProtKB P06731; also called CD66e
T1 sequence: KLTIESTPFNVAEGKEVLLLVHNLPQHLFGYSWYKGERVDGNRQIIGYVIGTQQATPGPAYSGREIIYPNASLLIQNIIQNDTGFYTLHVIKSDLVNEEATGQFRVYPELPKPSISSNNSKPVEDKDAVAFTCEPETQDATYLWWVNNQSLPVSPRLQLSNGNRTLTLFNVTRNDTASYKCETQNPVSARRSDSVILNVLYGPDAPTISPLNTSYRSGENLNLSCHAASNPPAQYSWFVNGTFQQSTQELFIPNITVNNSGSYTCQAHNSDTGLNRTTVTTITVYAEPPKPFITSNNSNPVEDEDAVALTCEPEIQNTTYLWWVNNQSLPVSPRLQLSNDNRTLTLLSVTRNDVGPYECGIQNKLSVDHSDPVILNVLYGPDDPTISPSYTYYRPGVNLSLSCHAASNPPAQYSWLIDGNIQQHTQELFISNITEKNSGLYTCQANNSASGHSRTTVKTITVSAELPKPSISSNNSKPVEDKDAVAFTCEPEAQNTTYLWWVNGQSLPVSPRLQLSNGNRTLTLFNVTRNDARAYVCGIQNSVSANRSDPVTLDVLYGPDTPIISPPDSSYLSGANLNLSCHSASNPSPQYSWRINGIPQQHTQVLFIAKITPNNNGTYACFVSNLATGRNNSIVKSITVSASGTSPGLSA
Description: Cells are harvested, counted, checked for viability and resuspended at 3×10⁶ cells/ml in FACS buffer (PBS 2% BSA, 0.1% NaN3). 100 μl of the cell suspension are distributed in V-bottom 96-well plates (3×10⁵ cells/well). The supernatant is removed by centrifugation 3 minutes at 4° C., 1300 rpm. Increasing concentrations of the antibody according to the invention are then added into the wells and incubated for 15 minutes at 4° C. Cells are washed twice with cold FACS buffer and re-incubated for further 15 minutes at 4° C. with the PE (R-phycoerythrin)-conjugated mouse anti-human IgG Fc secondary antibody (SouthernBiotech, pre-diluted 1:100 in FACS buffer). Cells are washed twice with cold FACS buffer and resuspended in 300 μl FACS buffer with 1:15000-diluted SytoxBlue (Life Technologies). Fluorescence is measured using a Cytoflex […]. Binding curves and EC50 values are obtained and calculated using GraphPad Prism? software. In the same manner binding of MAB CEA or MAB CEA1 to MKN-45 cells can be tested.

[2] = biological target: T2, human CD47 on MKN45 cells (human, UniProt Q08722); assay: inhibition of SIRPα-mouseFc binding to CD47 on MKN45 cells, imaging (CX5); column 'SIRPα inhibition potency'
T2 construct: whole, on cells; also called IAP
Source text: Experimental set-up for the measurement of the SIRPα inhibition potency data shown for bispecific antibodies of this invention (results see table 2):
The detection of bound SIRPα cell-based assay monitoring the interaction of soluble SIRPα with human CD47 expressed at the surface of MKN45 is used for the detection of the blocking activity. Dose-response experiments with bispecific antibodies according to the invention allow determination of an IC50 value.
MKN45 cancer cells, expressing both CD47 and CEACAM5, are stained with CFSE violet to allow the imaging system (CX5) to detect the cells. Briefly, 3,000 stained MKN45 cells per well are seeded in a 384 optical well plate (Costar) and incubated for 50 minutes with increased concentrations of bispecific antibodies of the invention (1.9 pM to 333 nM, in quadruplicates). Then, a fixe concentration of SIRPα—mouseFc premixed with anti-mouse IgG-Fc AF647 coupled antibody (Jackson Immunoresearch diluted 1:2000) is added at 50 ng/mL final. After an incubation of 3H30 plates are acquired with the imaging system (CX5, Thermofisher) and fluorescence signals emitted by the detected bound SIRPα is recorded by the software dedicated to the imaging system. Fluorescence signals are plotted according to the dose range tested and IC50 are calculated by the software (Prism, Graphpad).

B1: K2AC23 CEAxCD47 bispecific antibody (bispecific antibody, human IgG1, kappa, lambda)
heavy: [about 120 residues not given here][about 100 residues not given here][human IgG1 Fc not given here]
light 1: DIQMTQSPSSLSASVGDRVTITCRASQSISSYLNWYQQKPGKAPKLLIYAASSLQSGVPSRFSGSGSGTDFTLTISSLQPEDFATYYCQQMHPRAPKTFGQGTKVEIKRTVAAPSVFIFPPSDEQLKSGTASVVCLLNNFYPREAKVQWKVDNALQSGNSQESVTEQDSKDSTYSLSSTLTLSKADYEKHKVYACEVTHQGLSSPVTKSFNRGEC
light 2: QSVLTQPPSASGTPGQRVTISCSGSSSNIGYGLVNWYQQLPGTAPKLLIYATNTRPSGVPDRFSGSKSGTSASLAISGLQSEDEADYYCAAWDFSYKVVFGGGTKLTVLGQPKAAPSVTLFPPSSEELQANKATLVCLISDFYPGAVTVAWKADSSPVKAGVETTTPSKQSNNKYAASSYLSLTPEQWKSHRSYSCQVTHEGSTVEKTVAPTECS
notes: kappa-lambda body, human IgG1, common heavy chain; CEA arm light chain 1A8 (AC23)
In the case of B1, the EC50 [1] is reported as 76.8 nM and the IC50 [2] is reported as 1.6 nM.

— US20210221908A1 (LAMKAP BIO BETA, published 2021)
